Experimental data as given in US20230009608A1, “GRK2 INHIBITORS AND USES THEREOF” (Cygnal Therapeutics, Inc., priority 2020, published 2023).
The name of at least one read-out is uncertain.

Test system: PAXF1657 control empty vector cell line
Experiment: 7-day proliferation assay, PAXF1657 control empty vector cell line (Example 9)
Format: cell-based
Settings: Cell Line: PAXF1657 empty vector (EV) cell line
How it was run: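 PAXF1657 pancreatic cancer cells (GRK2-overexpressing vs empty vector; CRISPR GRK2 knockout vs non-targeting control) were seeded at 500 cells/well in RPMI1640/10% FBS, then given a 10-point series, 30 μM-0.0002 μM in 0.3% DMSO. Medium and compound were refreshed after 3 days; CellTiter-Glo luminescence was read at day 7.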

SMILES	D: 7-day proliferation assay: % Minimum GeoMean (%)
Cn1c(CNc2cccc(C(=O)NCc3cccc(CN4CCOCC4)c3)c2)nnc1-c1ccncn1	78.5
Cn1c(CNc2cccc(C(=O)NC3(c4cccnc4)CCC3)c2)nnc1-c1ccncn1	66.5
Cn1c(CNc2cccc(C(=O)NC3(c4ccccc4)CC3)c2)nnc1-c1ccncn1	68.7
Cn1c(CNc2cccc(C(=O)NC3(c4ccccn4)CC3)c2)nnc1-c1ccncn1	16.5
Cc1cc(CNC(=O)c2cccc(NCc3nnc(-c4ccncn4)n3C)c2)c(C)n1-c1ccccc1	35.5
COc1ncccc1CNC(=O)c1cccc(NCc2nnc(-c3ccncn3)n2C)c1	51.3
Cc1ccncc1C(C)NC(=O)c1cccc(NCc2nnc(-c3ccncn3)n2C)c1 (centres unmarked)	51.6
CCCC(NC(=O)c1cccc(NCc2nnc(-c3ccncn3)n2C)c1)c1ccccn1 (centres unmarked)	39.8
Cn1c(CNc2cccc(C(=O)NCc3ncnn3-c3ccccc3)c2)nnc1-c1ccncn1	68.1
CN1CCN(c2nccc(CNC(=O)c3cccc(NCc4nnc(-c5ccncn5)n4C)c3)n2)CC1	100
Cn1c(CNc2cccc(C(=O)NC(CCO)c3cccc(F)c3)c2)nnc1-c1ccncn1 (centres unmarked)	40.4
Cn1c(CNc2cccc(C(=O)NCc3ccc(Cn4cncn4)cc3)c2)nnc1-c1ccncn1	63.6
Cn1c(CNc2cccc(C(=O)NCc3cc4n(n3)CCCC4)c2)nnc1-c1ccncn1	14.1
Cn1cc(C(NC(=O)c2cccc(NCc3nnc(-c4ccncn4)n3C)c2)c2ccc(F)cc2)cn1 (centres unmarked)	114
COCC(NC(=O)c1cccc(NCc2nnc(-c3ccncn3)n2C)c1)c1ccc(F)c(F)c1 (centres unmarked)	57.4
Cc1ncc(CNC(=O)c2cccc(NCc3nnc(-c4ccncn4)n3C)c2)s1	66.2

SMILES	D: 7-day proliferation assay: % Minimum GeoMean (%)
Cn1c(CNc2cccc(C(=O)NC3(c4cccnc4)CC3)c2)nnc1-c1ccncn1	55.5
CCc1cc(CNC(=O)c2cccc(NCc3nnc(-c4ccncn4)n3C)c2)no1	40.4
C[C@H](NC(=O)c1cccc(NCc2nnc(-c3ccncn3)n2C)c1)c1ccncc1	63.3
Cn1c(CNc2cccc(C(=O)NCc3nc4ccccc4o3)c2)nnc1-c1ccncn1	15.7
Cn1c(CNc2cccc(C(=O)NC3COc4cccc(F)c43)c2)nnc1-c1ccncn1 (centres unmarked)	35
Cc1cccc2c1OCC[C@@H]2NC(=O)c1cccc(NCc2nnc(-c3ccncn3)n2C)c1	36.7
C[C@H](NC(=O)c1cccc(NCc2nnc(-c3ccncn3)n2C)c1)c1cnccn1	67.5
Cn1c(CNc2cccc(C(=O)NCc3nc4ccccc4[nH]3)c2)nnc1-c1ccncn1	58
Cn1c(CNc2cccc(C(=O)C[C@H]3CCCc4cccnc43)c2)nnc1-c1ccncn1	65.7
Cn1c(CNc2cccc(C(=O)NC(c3ncccn3)C(C)(C)C)c2)nnc1-c1ccncn1 (centres unmarked)	65.9
Cc1ccnc(C(C)NC(=O)c2cccc(NCc3nnc(-c4ccncn4)n3C)c2)n1 (centres unmarked)	65.1
C[C@H](NC(=O)c1cccc(NCc2nnc(-c3ccncn3)n2C)c1)c1ccnn1C	63.1
Cn1c(CNc2cccc(C(=O)NC(C)(C)c3nccs3)c2)nnc1-c1ccncn1	71.6
COCC(C)(NC(=O)c1cccc(NCc2nnc(-c3ccncn3)n2C)c1)c1ccccc1 (centres unmarked)	54.2
Cn1c(CNc2cccc(C(=O)NC(c3ccccc3)C(C)(C)CO)c2)nnc1-c1ccncn1 (centres unmarked)	57.8
COc1cccc(C2(NC(=O)c3cccc(NCc4nnc(-c5ccncn5)n4C)c3)CC2)c1F	38.3
